# Measured values taken from the supplement of paper PMC8728848.
# This is one part of the list.
# Tests used:
# Assay in all cases: glycan array binding signal (z-score within array); higher = stronger binding
# Settings in all cases: glycan notation: IUPAC condensed, linker removed
# [1] = target: Gal(b1-4)GlcNAc(b1-6)GalNAc
# How it was run: (§1)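 Glycan array binding is given as a within-array Z-score, which can be read as non-binding when negative. The arrays, 3228 of them, came from the Consortium for Functional Glycomics database and were retained only where the protein sequence was available. Z-scores were averaged across arrays of the same protein sequence at different concentrations or buffers and across linkers.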
# [2] = target: Gal(b1-4)GlcNAc(b1-6)[Gal(b1-3)]GalNAc
# How it was run: as §1
# [3] = target: Gal(b1-4)GlcNAc(b1-6)[Gal(b1-4)GlcNAc(b1-3)]GalNAc
# How it was run: as §1
# Gal(b1-4)GlcNAc6P = target: Gal(b1-4)GlcNAc6P
# How it was run: as §1
# Gal(b1-6)Gal = target: Gal(b1-6)Gal
# How it was run: as §1
# Gal3S(b1-3)GalNAc = target: Gal3S(b1-3)GalNAc
# How it was run: as §1
# Gal3S(b1-3)GlcNAc = target: Gal3S(b1-3)GlcNAc
# How it was run: as §1
# [4] = target: Gal3S(b1-3)[Fuc(a1-4)]GlcNAc
# How it was run: as §1
# Gal3S(b1-4)Glc = target: Gal3S(b1-4)Glc
# How it was run: as §1
# Gal3S(b1-4)Glc6S = target: Gal3S(b1-4)Glc6S
# How it was run: as §1
# Gal3S(b1-4)GlcNAc = target: Gal3S(b1-4)GlcNAc
# How it was run: as §1
# Gal3S(b1-4)GlcNAc6S = target: Gal3S(b1-4)GlcNAc6S
# How it was run: as §1
# [5] = target: Gal3S(b1-4)[Fuc(a1-3)]Glc
# How it was run: as §1
# [6] = target: Gal3S(b1-4)[Fuc(a1-3)]Glc6S
# How it was run: as §1
# [7] = target: Gal3S(b1-4)[Fuc(a1-3)]GlcNAc
# How it was run: as §1
# [8] = target: Gal3S(b1-4)[Fuc(a1-3)]GlcNAc6S
# How it was run: as §1
# Gal3S4S(b1-4)GlcNAc = target: Gal3S4S(b1-4)GlcNAc
# How it was run: as §1
# Gal3S6S(b1-4)GlcNAc = target: Gal3S6S(b1-4)GlcNAc
# How it was run: as §1
# Gal3S6S(b1-4)GlcNAc6S = target: Gal3S6S(b1-4)GlcNAc6S
# How it was run: as §1
# Gal4S(b1-4)GlcNAc = target: Gal4S(b1-4)GlcNAc
# How it was run: as §1
# Gal4S6S(b1-4)GlcNAc = target: Gal4S6S(b1-4)GlcNAc
# How it was run: as §1
# Gal6P(b1-4)GlcNAc = target: Gal6P(b1-4)GlcNAc
# How it was run: as §1
# Gal6S(b1-3)GlcNAc = target: Gal6S(b1-3)GlcNAc
# How it was run: as §1
# Gal6S(b1-3)GlcNAc6S = target: Gal6S(b1-3)GlcNAc6S
# How it was run: as §1
# Gal6S(b1-4)Glc = target: Gal6S(b1-4)Glc
# How it was run: as §1
# Gal6S(b1-4)Glc6S = target: Gal6S(b1-4)Glc6S
# How it was run: as §1
# Gal6S(b1-4)GlcNAc = target: Gal6S(b1-4)GlcNAc
# How it was run: as §1
# Gal6S(b1-4)GlcNAc6S = target: Gal6S(b1-4)GlcNAc6S
# How it was run: as §1
# GalNAc(a1-3)Gal = target: GalNAc(a1-3)Gal
# How it was run: as §1
# GalNAc(a1-3)GalNAc = target: GalNAc(a1-3)GalNAc
# How it was run: as §1
# [9] = target: GalNAc(a1-3)GalNAc(b1-3)Gal(a1-4)Gal(b1-4)Glc
# How it was run: as §1
# [10] = target: GalNAc(a1-3)GalNAc(b1-3)Gal(a1-4)Gal(b1-4)GlcNAc
# How it was run: as §1
# GalNAc(b1-3)Gal = target: GalNAc(b1-3)Gal
# How it was run: as §1
# [11] = target: GalNAc(b1-3)Gal(a1-4)Gal(b1-4)GlcNAc
# How it was run: as §1
# [12] = target: GalNAc(b1-3)Gal(a1-4)Gal(b1-4)GlcNAc(b1-3)Gal(b1-4)Glc
# How it was run: as §1
# [13] = target: GalNAc(b1-3)Gal(a1-6)Gal(b1-4)Glc
# How it was run: as §1
# GalNAc(b1-3)GalNAc = target: GalNAc(b1-3)GalNAc
# How it was run: as §1
# GalNAc(b1-3)GlcNAc = target: GalNAc(b1-3)GlcNAc
# How it was run: as §1
binder,measurement,setting,value
rAAL-2 (Agrocybe aegerita) (protein) MTSNVITQDLPIPVASRGFADIVGFGLDGVVIGRNAVNLQPFLAVKNFAQNAGGWLTTKHVRLIADTTGTGKGDIVGFGNAGVYVSVNNGKNTFADPPKMVIANFGYDAGGWRVEKHLRYLADIRKIGRADIIGFGEKGVLVSRNNGGLNFGPATLVLKDFGYDAGGWRLDRHLRFLADVTGNGHLDIVGFGDKHVFISRNNGDGTFAPAKSVIDNFCIDAGGWKIGDHPRFVADLTGDGTADIIGCGKAGCWVALNNGGGVFGQVKLVINDFGTDKGWQAAKHPRFIADLTGNGRGDVVGFGNAGVYVALNNGDGTFQSAKLVLKDFGVQQGWTVSKHRRFVVDLTGDGCADIIGFGEKETLVSYNDGKGNFGPVKALTNDFSFSGGKWAPETTVCWMANLDSSRH,glycan array binding signal (z-score),[1],-0.309
same,glycan array binding signal (z-score),[2],-0.193
same,glycan array binding signal (z-score),[3],-0.412
same,glycan array binding signal (z-score),Gal(b1-4)GlcNAc6P,-0.067
same,glycan array binding signal (z-score),Gal(b1-6)Gal,-0.299
same,glycan array binding signal (z-score),Gal3S(b1-3)GalNAc,-0.158
same,glycan array binding signal (z-score),Gal3S(b1-3)GlcNAc,-0.288
same,glycan array binding signal (z-score),[4],-0.239
same,glycan array binding signal (z-score),Gal3S(b1-4)Glc,-0.14
same,glycan array binding signal (z-score),Gal3S(b1-4)Glc6S,-0.288
same,glycan array binding signal (z-score),Gal3S(b1-4)GlcNAc,-0.213
same,glycan array binding signal (z-score),Gal3S(b1-4)GlcNAc6S,-0.11
same,glycan array binding signal (z-score),[5],-0.264
same,glycan array binding signal (z-score),[6],-0.303
same,glycan array binding signal (z-score),[7],-0.286
same,glycan array binding signal (z-score),[8],-0.567
same,glycan array binding signal (z-score),Gal3S4S(b1-4)GlcNAc,-0.379
same,glycan array binding signal (z-score),Gal3S6S(b1-4)GlcNAc,-0.303
same,glycan array binding signal (z-score),Gal3S6S(b1-4)GlcNAc6S,-0.286
same,glycan array binding signal (z-score),Gal4S(b1-4)GlcNAc,-0.445
same,glycan array binding signal (z-score),Gal4S6S(b1-4)GlcNAc,0.033
same,glycan array binding signal (z-score),Gal6P(b1-4)GlcNAc,-0.19
same,glycan array binding signal (z-score),Gal6S(b1-3)GlcNAc,-0.369
same,glycan array binding signal (z-score),Gal6S(b1-3)GlcNAc6S,-0.163
same,glycan array binding signal (z-score),Gal6S(b1-4)Glc,-0.307
same,glycan array binding signal (z-score),Gal6S(b1-4)Glc6S,-0.233
same,glycan array binding signal (z-score),Gal6S(b1-4)GlcNAc,-0.28
same,glycan array binding signal (z-score),Gal6S(b1-4)GlcNAc6S,-0.307
same,glycan array binding signal (z-score),GalNAc(a1-3)Gal,-0.294
same,glycan array binding signal (z-score),GalNAc(a1-3)GalNAc,-0.36
same,glycan array binding signal (z-score),[9],-0.017
same,glycan array binding signal (z-score),[10],0.074
same,glycan array binding signal (z-score),GalNAc(b1-3)Gal,-0.347
same,glycan array binding signal (z-score),[11],-0.161
same,glycan array binding signal (z-score),[12],-0.223
same,glycan array binding signal (z-score),[13],-0.194
same,glycan array binding signal (z-score),GalNAc(b1-3)GalNAc,1.36
same,glycan array binding signal (z-score),GalNAc(b1-3)GlcNAc,-0.485
